From PubChem BioAssay AID1345082 (National Center for Advancing Translational Sciences (NCATS), 2018)
Screen size: about 94,000 compounds; about 4,000 (4.3%) were called active. The inconclusive results got no clear call from the source; some entries with a clear call stand among them for comparison. Calls follow the shape of the dose curve; as a rule, active = well fitted inhibition curve with a large enough effect; inconclusive = small, poorly fitted or top-dose-only effect; inactive = no such curve, though single readings can be large or run the other way. Potencies beside an inconclusive call are fits to weak or partial responses and may not hold up.

experiment: Cytotoxic Profiling in NIH 3T3 Cell Line of Diverse Libraries Using Quantitative High-Throughput Screening; conditions: NIH 3T3 viability, CellTiter-Glo ATP luminescence, 48-72 h; series mostly up to 96.7 µM; also: nearly all actives have a fitted effect of over 55% in size
Procedure, shortened: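 NIH 3T3 cells at 400 cells/well received 23 nL of compound by pintool and were incubated 48 or 72 h at 37 °C. Viability was read as ATP-coupled CellTiter-Glo luminescence.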
Potency is read from the fitted curve at half-maximal effect; tags tell the direction and shape of the fitted curve.

Row | Compound | Potency
1 | C[S+](=O)([O-])N1CC2(Cc3ccccc31)CN(C(=O)Cc1cccc(Cl)c1)C2 | inconclusive: 44.7 µM [inhibitor, partial curve, poor fit]
2 | CNC(=O)C1(N2CCC[C@H]2C(=O)N2CCCCC2)COC1 | inactive
3 | Cn1ncc2c(C(=O)N3CCN(Cc4ccccc4)CC3)cc(-c3ccccc3F)nc21 | inconclusive: 44.7 µM [inhibitor, partial curve, poor fit]
4 | CCCCn1c(=O)c(C(=O)N2CCN(C(=O)c3ccc(C)cc3)CC2)nc2cccnc21 | inconclusive: 50.1 µM [inhibitor, partial curve, poor fit]
5 | O=C(NC[C@H]1O[C@@H](CO)[C@@H](O)[C@H]1N1CCN(c2cccc(C(F)(F)F)c2)CC1)c1cccs1 | inconclusive: 89.1 µM [inhibitor, single point]
6 | COc1ccc(-c2cc(C(=O)NCc3ccnc(N)c3)c3c(c2)ncn3C)cc1 | inconclusive: 89.1 µM [inhibitor, partial curve, poor fit]
7 | O=C(NCCc1ccc(Cl)cc1)C1CCc2nnc(C3CCN([S+](=O)([O-])c4ccccc4Cl)CC3)n21 (stereo not given) | inconclusive: 70.8 µM [inhibitor, single point]
8 | O=C(NCc1ccc(F)cc1)Nc1cccc(-c2ccc(N3CCOCC3)nn2)c1 | inactive
9 | CN1CCN(c2nc3c(c(=O)[nH]2)CCN(Cc2ccc(C(F)(F)F)cc2)CC3)CC1 | inactive
10 | OCC1(CCCc2ccccc2)CCN(Cc2cccn2-c2nccs2)CC1 | inconclusive: 44.7 µM [inhibitor, partial curve, poor fit]
11 | Cc1ccc(C(=O)N2CCOc3ccc(CN4CCc5ccccc5C4)cc3C2)cn1 | inactive
12 | Cc1ccc(C#N)c(NCc2cccnc2Oc2cccc(C(F)(F)F)c2)n1 | inconclusive: 50.1 µM [inhibitor, partial curve, poor fit]
13 | COc1cccc(N2C(=O)NC(=NC3CCCC3)C23CCCN([S+](=O)([O-])c2cccc(C(F)(F)F)c2)C3)c1 (stereo not given) | inconclusive: 50.1 µM [inhibitor, partial curve, poor fit]
14 | Cc1ccc(CN2C[C@@H]3C[C@H]2C(=O)N(CC2CC2)c2ccccc2O3)cc1 | active: 100 µM
15 | NCCc1cccc(CN2CCC(OCc3ccccc3)CC2)c1 | inconclusive: 50.1 µM [inhibitor, partial curve, poor fit]
16 | Cc1nn(C)c(C)c1S(=O)(=O)N1CC[C@@H]2COCCN(C)[C@@H]2C1 | inactive
17 | O=C1NC(=NC2CCCCC2)C2(CCCN(Cc3ccccc3)C2)N1c1cc(F)cc(F)c1 (stereo not given) | active: 35.5 µM
18 | COc1ccc(C2(C(=O)NCCc3ncc(C)n3Cc3ccc(F)cc3)CC2)cc1 | inconclusive: 50.1 µM [inhibitor, partial curve, poor fit]
19 | O=C1CC2(CCN(Cc3ccc(C(F)(F)F)cc3)CC2)Oc2ccccc21 | inconclusive: 39.8 µM [inhibitor, partial curve, poor fit]
20 | O=C(c1ccc2ncccc2c1)N1CCC2(CC1)CC(CO)N(C(=O)c1ccccc1)C2 (stereo not given) | inactive

Row | Compound | Potency
21 | CC(C)N1C[C@H](O)C[C@H]1c1nnc2n1CCN(C(=O)c1ccncc1)CC2 | inactive
22 | CCS(=O)(=O)N(C1CC1)C1CCOC2(CCN(C(=O)c3ccccc3OC)CC2)C1 (stereo not given) | inactive
23 | COc1cccc(-c2ccc(N3CCCCCC3)nn2)c1OC | inconclusive: 89.1 µM [inhibitor, partial curve, poor fit]
24 | Cc1ccc(Cn2c(C3CCN(C(=O)c4ccc(C)c(F)c4)CC3)n[nH]c2=O)cc1 | inactive
25 | CC(C)c1cnc(C2CCN(C(=O)OC(C)(C)C)CC2)[nH]1 | inactive
26 | O=C1NC2(CCCN(CC3CC3)C2)Oc2ccccc21 (stereo not given) | inactive
27 | Cc1cc(C)c(CNC(=O)c2cc(-c3cccnc3)cc3c2OCCN3C)c(=O)[nH]1 | inconclusive: 56.2 µM [inhibitor, partial curve, poor fit]
28 | COCC1CN(C)CC12CCN(S(=O)(=O)c1ccc3c(c1)CCC3)CC2 (stereo not given) | inconclusive: 50.1 µM [inhibitor, partial curve, poor fit]
29 | COc1cccc(CNC(=O)[C@@]23CCCC[C@H]2N(CCc2ccccc2)C(=O)CC3)c1 | inconclusive: 50.1 µM [inhibitor, partial curve, poor fit]
30 | COc1cccc(-c2ccc(C(=O)N3CCC(NC(=O)c4ccccc4C)CC3)cc2)c1 | active: 39.8 µM
31 | O=C(CCc1c[nH]c2ccccc12)N1CCC2(CC1)CC(CO)N(C(=O)c1ccccc1)C2 (stereo not given) | inconclusive: 56.2 µM [inhibitor, partial curve, poor fit]
32 | COc1ccc(N2CC(C(=O)NCc3ccc(C(F)(F)F)cc3)NC2=O)cc1 (stereo not given) | inconclusive: 44.7 µM [inhibitor, partial curve, poor fit]
33 | COc1ccc(NC(=O)N2Cc3[nH]cnc3C[C@H]2c2nc(-c3ccc(F)c(Cl)c3)no2)cc1 | active: 31.6 µM
34 | CC(C)CCNC(=O)c1cnc2n1CCN(Cc1cccs1)CC2 | inconclusive: 89.1 µM [inhibitor, partial curve]
35 | Cc1oc2ccn(Cc3cccc(F)c3)c(=O)c2c1C(=O)NC1CCCC1 | inconclusive: 44.7 µM [inhibitor, partial curve, poor fit]
36 | O=C(c1cccc(F)c1)N1CCC2(CC1)NC(=O)N(c1ccccc1Cl)N2 | inconclusive: 39.8 µM [inhibitor, partial curve]
37 | COc1cccc(C(=O)NCCNC(=O)c2ccc(-c3cncnc3)cc2)c1 | inactive
38 | CCc1cccc(NC(=O)Cn2c(N3CCc4ccccc4C3)nc(C)cc2=O)c1 | active: 28.2 µM
39 | Cc1ccc(C(=O)N2CCN(c3cc(C(F)(F)F)ncn3)CC2)cc1 | inconclusive: 35.5 µM [inhibitor, partial curve, poor fit]
40 | CCOC(=O)[C@@H]1CN([S+](=O)([O-])c2ccccc2)[C@H]2c3ccccc3O[C@@H]12 | inconclusive: 70.8 µM [inhibitor, single point]
